Results taken from PubChem BioAssay AID488969 (Vanderbilt High Throughput Screening Facility, 2010).
Whole data set: some 110,000 compounds, median “z-score” near -0.1, cut for the highest 2% near 2. This is one part of the list.

The molecules below were run against Metabotropic glutamate receptor 8 (Rattus norvegicus) (UniProt P70579) (assay: rat mGluR8 modulators via GIRK flux, primary screen, cell-based, thallium flux, HTS (AID 488969)). Details: HEK293 rat mGluR8, GIRK (G protein-gated inwardly rectifying potassium channel) thallium flux, FluoZin2; at 10 µM; stronger effect = higher value; submaximal glutamate (EC20) added with thallium.
Chain of UniProt P70579 (P70579 whole entry, looked up): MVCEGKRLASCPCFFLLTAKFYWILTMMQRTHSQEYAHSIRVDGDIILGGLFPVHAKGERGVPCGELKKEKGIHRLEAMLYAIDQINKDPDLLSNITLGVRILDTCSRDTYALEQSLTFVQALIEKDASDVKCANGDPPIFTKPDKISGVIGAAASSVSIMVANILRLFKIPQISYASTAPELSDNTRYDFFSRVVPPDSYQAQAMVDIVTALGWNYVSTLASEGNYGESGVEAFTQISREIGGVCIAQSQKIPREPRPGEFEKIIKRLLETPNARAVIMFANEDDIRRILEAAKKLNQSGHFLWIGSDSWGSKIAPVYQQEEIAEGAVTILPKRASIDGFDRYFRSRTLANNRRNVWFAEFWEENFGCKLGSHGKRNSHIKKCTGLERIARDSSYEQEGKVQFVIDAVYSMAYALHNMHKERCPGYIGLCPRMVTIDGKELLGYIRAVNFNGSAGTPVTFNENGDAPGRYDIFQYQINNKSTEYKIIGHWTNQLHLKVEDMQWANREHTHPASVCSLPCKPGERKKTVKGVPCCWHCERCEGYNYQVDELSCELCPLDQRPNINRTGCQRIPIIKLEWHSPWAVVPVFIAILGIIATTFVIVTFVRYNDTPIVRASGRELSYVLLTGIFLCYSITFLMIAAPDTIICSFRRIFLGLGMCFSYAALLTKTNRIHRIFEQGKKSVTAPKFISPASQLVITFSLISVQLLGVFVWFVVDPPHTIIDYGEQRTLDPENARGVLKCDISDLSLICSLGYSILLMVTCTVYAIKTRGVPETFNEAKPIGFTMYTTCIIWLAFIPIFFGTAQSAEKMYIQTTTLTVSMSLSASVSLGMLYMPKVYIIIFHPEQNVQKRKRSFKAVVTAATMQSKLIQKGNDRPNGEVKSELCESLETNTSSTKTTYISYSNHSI

Row | SMILES | z-score
1 | CCCn1nc2cc(C(=O)NCC34CC5CC(CC(C5)C3)C4)ccc2c1OCC | -0.14
2 | CC(C)OCCCNC(=O)c1cc2c(=O)n(C)c3ccccc3c2n1C | -0.527
3 | Cn1ncc2c1ncn1nc(CCc3ccccc3)nc21 | -0.114
4 | CCCn1c(N)nc2ccccc21 | -0.0817
5 | COc1ccc(CCNC2=C(Cl)C(=O)N(CCc3ccccc3)C2=O)cc1OC | -0.435
6 | Cn1nc(-c2ccccc2)c(C(=O)Nc2ccc(Cl)cc2)c1Cl | -0.313
7 | CCN(Cc1ccccc1)S(=O)(=O)c1ccc(S(=O)(=O)N(Cc2ccccn2)Cc2ccco2)cc1 | 0.274
8 | Cc1c(C(=O)N2CCOCC2)oc2ccc(S(=O)(=O)N3CCCC3)cc12 | 0.0159
9 | Cc1ccc2nc(/C(C#N)=C\c3ccc(OC(=O)c4cccs4)cc3)[nH]c2c1 | -0.0744
10 | S=C(c1ccc(Br)cc1)N1CCN(Cc2ccccc2)CC1 | -0.0404
11 | CCO/C=C/C(O)(CNC(=O)c1ccc(C(C)(C)C)cc1)C(F)(F)F (centres undefined) | 0.609
12 | COc1ccc(-c2noc(CN(C(=O)c3ccc(OC(C)=O)cc3)C(C)C)n2)cc1OC | -0.302
13 | Cc1cccc(CN2CCN(C(=O)c3ccccc3F)CC2)c1 | -0.00448
14 | O=C(NC1CCCC1)c1ccc(CNc2c(N3CCOCC3)c(=O)c2=O)cc1 | -0.273
15 | O=S(=O)(/N=C(/Nc1cc(N2CCOCC2)ncn1)c1ccc(F)cc1)c1ccccc1 | 0.0735
16 | CC1(C)CC(=O)C2=C(C1)N(c1cccc(Cl)c1)C(=O)NC2(C(F)(F)F)C(F)(F)F | -0.549
17 | CCC(C)n1c(SCC(=O)/C(C#N)=C(\C)N)nc2ccccc2c1=O (centres undefined) | 0.427
18 | Cc1ccc(C2CC(c3ccco3)n3ncnc3N2)cc1 (centres undefined) | 0.207
19 | CN(C(=O)c1c(Cl)cnn1C)C12CC3CC(CC(C3)C1)C2 | 0.0934
20 | COc1ccc(/C=N/Nc2cc(C)nc(-n3nc(C)cc3C)n2)cc1 | -0.0167
21 | CC(C)c1nc(N2CCCC2)c(C#N)c2c1CCCC2 | 0.908
22 | Cc1ccc(S(=O)(=O)Nc2ccc3ncccc3c2)cc1 | 0.627

Row | SMILES | z-score
23 | O=C(NCCc1ccccc1)c1cnn2c(C(F)F)cc(C3CC3)nc12 | -1.35
24 | CCn1c(CNC(=O)COc2ccc(C(C)C)cc2)nnc1SCC(=O)NC1CCCCC1C (centres undefined) | -0.145
25 | CCOC(=O)Cn1c(-c2ccc(Cl)nc2)nc2ccccc21 | 0.0162
26 | Cc1ccc(SCc2cc(-c3ccc(Cl)cc3)no2)cc1 | -0.142
27 | C=CCc1cc(C=O)cc(OC)c1OCc1ccc(Cl)cc1 | 0.88
28 | CC1CCN(C(=O)C2CCN(CC(C)c3ccccc3)CC2)CC1 (centres undefined) | 0.75
29 | Nc1ccccc1NC1=CC(=O)CC(c2ccco2)C1 (centres undefined) | 1.27
30 | O=C1CCN2C=Nc3cccc4ccc1c2c34 | -1.06
31 | COc1ccc(CCNC(=O)CCN2C(=O)C(C)Oc3ccc(C)cc32)cc1OC (centres undefined) | -0.462
32 | CC(CNC(=O)c1ccc(Br)o1)NC(=O)c1ccc(Br)o1 (centres undefined) | 0.235
33 | CC(Oc1ccc(Cl)cc1Cl)C(=O)NNC(=O)C(=O)N1CCCCC1 (centres undefined) | -1.87
34 | COCc1nnc(NC(=O)CCCOc2ccccc2)s1 | 0.0976
35 | O=C(O)c1ccccc1-c1ccccc1C(=O)Nc1cccc2ccccc12 | -0.0773
36 | CCCOc1ccc(CSCCNC(=S)Nc2ccccc2)cc1 | 0.264
37 | Cc1ccc2nc3sc(C(=O)NCc4ccco4)c(N)c3cc2c1 | -0.222
38 | O=C(CN1CCN(Cc2ccc(F)cc2Cl)C1=O)NCCc1ccccc1 | -0.186
39 | CCOC(=O)c1ccc(NS(=O)C23CC4CC(CC(C4)C2)C3)cc1 (centres undefined) | -0.789
40 | CCOC(=O)c1nn(-c2ccc(C)cc2)c(=O)c2c(N)scc12 | -0.401
41 | Nc1nc(SCC(=O)NCCN2CCOCC2)nc2sc3c(c12)CCC3 | -0.356
42 | O=C(CSc1ccc(-c2ccc(F)cc2)nn1)NCc1ccco1 | -0.746
43 | CCOC(=O)C1=C(CN2CCCCC2)NC(=O)NC1c1cc(C)ccc1C (centres undefined) | -0.177
44 | Cc1ccc(C(=O)NCC2CCCO2)cc1[N+](=O)[O-] (centres undefined) | 0.0557

Row | SMILES | z-score
45 | Cc1cccc(-n2ccnc2SCC(=O)Nc2ccc3c(c2)OCCO3)c1 | -0.62
46 | O=C(O)CN1C(=O)CC(Cc2ccccc2)C1=O (centres undefined) | 0.156
47 | COC(=O)c1cc(NCc2c(F)cccc2Cl)ccc1N1CCOCC1 | -0.226
48 | O=C(NC1CCS(=O)(=O)C1)c1cccc(S(=O)(=O)N2CCCCC2)c1 (centres undefined) | -0.566
49 | COc1ccc(/C=N/NC(=O)c2cccc([N+](=O)[O-])c2)cc1OC(=O)c1ccc(C)cc1 | -0.203
50 | COc1ccc(OC)c(-c2cn(S(=O)(=O)c3ccccc3)nc2N)c1 | -0.12
51 | O=C(C=C1CCN(c2ncc(C(F)(F)F)cc2Cl)CC1)NNC(=O)Nc1ccc(Cl)cc1 | 0.178
52 | CCC(C)(C(=O)NC1CCCC1)N(C(=O)c1cnccn1)c1c(C)n(C)n(-c2ccccc2)c1=O (centres undefined) | 0.652
53 | CC(=O)Nc1ccc(N2CCCCC2)cc1 | -0.251
54 | O=C(O)CSc1ncccc1C(=O)O | -1.44
55 | CC1(C)CC2(CCO1)OC(=O)CC2C(=O)Nc1cccc2ccccc12 (centres undefined) | -0.378
56 | O=C(O)CC(SCc1ccc(C(=O)O)o1)C(=O)O (centres undefined) | -0.0482
57 | Cn1c(=O)c2c(nc(CN3CCN(Cc4ccccc4)CC3)n2Cc2ccc(Cl)cc2)n(C)c1=O | 0.453
58 | O=C(COC(=O)c1ccc([N+](=O)[O-])o1)Nc1cccc(S(=O)(=O)N2CCOCC2)c1 | -0.207
59 | CCOC(=O)c1c(N)sc(-c2ccccc2)c1C | -0.229
60 | COCCCNCCOCCOc1ccc(Cl)cc1C(C)(C)C | 0.597
61 | Cc1nn(-c2ccc(F)cc2)c2sc(C(=O)N3CCCCCC3)cc12 | -0.274
62 | FC(F)(F)c1cc(NCc2cccs2)n2ncnc2n1 | 0.0172
63 | OC(COc1c(F)cc(Br)cc1F)CN1CCN(c2ccc(F)cc2)CC1 (centres undefined) | -0.815
64 | CC(C)CCOc1ccc(C(=O)O)cc1 | -0.278
65 | CC(C)(Oc1ccc(Cl)cc1)C(=O)N1CCN(c2ccccn2)CC1 | -0.0555
66 | O=C(NO)c1ccc(C(=O)N(C2CCCCC2)C2CCCCC2)cc1 | 0.41

Row | SMILES | z-score
67 | COCCNc1c([N+](=O)[O-])c(=O)n(-c2ccccc2)c2ccccc12 | -0.382
68 | O=C(CSc1cnc2ccccc2n1)NC1CCCC1 | -0.494
69 | COc1cc(CCC(=O)OCC(=O)Nc2nc(C)c(Cl)cc2Cl)cc(OC)c1OC | -0.356
70 | O=C(NCC(=O)N(c1ccccc1)C(C(=O)NC1CCCC1)c1cccnc1)c1cccs1 (centres undefined) | -0.00843
71 | COc1ccc(OC)c(CN2C(=O)CCC2(C)C(=O)NC2CCCCCC2)c1 (centres undefined) | 1.12
72 | CCn1c(SCC(=O)NC(C)(C)C)nnc1-c1ccoc1C | 0.155
73 | O=C(Nc1ccc(Cl)cc1)c1cc2nc(C3CC3)cc(C(F)(F)F)n2n1 | -0.433
74 | CC(=O)C(C)Oc1cc(C)cc2oc(=O)c(C)c(C)c12 (centres undefined) | -0.115
75 | CCOC(=O)c1cnn2c(C(F)(F)F)cc(-c3cn(C)nc3C)nc12 | -0.477
76 | Cc1cc(NC(=O)CN2C(=O)NC(C)(c3ccccc3)C2=O)no1 (centres undefined) | -0.0496
77 | CC(=O)OCC(=O)Nc1ccc(N=Nc2ccccc2)cc1 | 0.277
78 | COCCSc1ccccc1C(=O)Nc1cc(C)ccn1 | -0.869
79 | COc1cccc(/C=N/Nc2nc3ccccc3n3cnnc23)c1 | 0.123
80 | COC(=O)c1cc(NC(=O)CC2SC(=Nc3ccccc3)N(CCc3c[nH]c4ccccc34)C2=O)cc(C(=O)OC)c1 (centres undefined) | -0.15
81 | Cc1nc(SCC(=O)OCc2ccccc2)c2c(=O)n(C)c(=O)n(C)c2n1 | -0.454
82 | CCOc1cc(/C=C2/N=C(c3ccc(C(C)(C)C)cc3)OC2=O)cc(Cl)c1OS(C)(=O)=O | 1.16
83 | CCCc1cc(=O)n2c(nc3ccccc32)[nH]1 | -0.513
84 | COc1cc(S(=O)(=O)N2CCOCC2)ccc1NC(=O)COC(=O)CC12CC3CC(CC(C3)C1)C2 | 0.016
85 | CC(C)(Oc1ccc(Br)cc1)C(=O)N1CCc2ccccc21 | 0.00475
86 | COc1ccc(O)c(/C=N/NC(=O)c2ccc(CSc3nc(C)cc(C)n3)cc2)c1 | 0.0894
87 | CC(/C=C1\N=C(SCc2ccccc2)SC1=O)=C\c1ccccc1 | 0.253
88 | CC(=O)N1CCN(c2ccccc2NC(=O)COc2ccc(Br)cc2)CC1 | -1.84

Row | SMILES | z-score
89 | CCOCCCNC(=O)c1c[nH]c2ccc(S(=O)(=O)Nc3cccc(OC)c3)cc2c1=O | -0.206
90 | CN(CCOC(=O)C1c2ccccc2Oc2ccccc21)C(C)(C)C | 0.442
91 | Cc1ccc(C2CC(c3ccc(C)cc3)n3nc(N)nc3N2)cc1 (centres undefined) | 0.716
92 | COc1ccc2c3c(cccc13)C(=O)N(O)C2=O | -0.149
93 | CN(C)S(=O)(=O)N1CCN(CC(=O)Nc2cc(Cl)ccc2Cl)CC1 | 0.48
94 | Cc1c(C)n(C(=O)CSc2nc3ccccc3[nH]2)c2ccccc12 | 0.855
95 | Cc1ccc(C(=O)N/C(=C/c2ccc(Cl)cc2)C(=O)Nc2cccc(C(=O)O)c2)cc1 | 0.19
96 | COc1ccc(OC)c(C2=NO[C@@H]3C(=O)N(c4cc(Cl)ccc4OC)C(=O)[C@H]23)c1 | -0.133
97 | CC(=O)NC(Cc1ccc(F)cc1)C(=O)N1CCN(C(=O)NCc2ccccc2)CC1 (centres undefined) | -0.086
98 | CCC(C)OC(=O)C1=C(C)NC(=O)NC1c1ccc(F)cc1 (centres undefined) | -0.184
99 | Cc1cccc(N2CC(C(=O)OCC(=O)c3ccc(OC(=O)c4cccs4)cc3)CC2=O)c1C (centres undefined) | -0.149
100 | COc1ccc(OCC(=O)NC(=S)N2CCCc3ccccc32)cc1 | 1.72
101 | Cc1cccc(NC(=O)NNC(=O)c2nn(C)cc2Br)c1 | -0.174
102 | NC(=O)CSc1nnc(CNc2ccc(F)cc2)n1CC1CCCO1 (centres undefined) | -0.378
103 | CCN1CCN(CC(O)COc2ccc3c(c2)CCC3)CC1 (centres undefined) | -0.0762
104 | CCOC(=O)C1CCN(c2nc3ccccc3nc2C(C#N)C(=O)NCCc2ccccc2)CC1 (centres undefined) | -0.159
105 | CCCN(N=Nc1cccc([N+](=O)[O-])c1)c1cccc([N+](=O)[O-])c1 | 0.00417
106 | O=C1C2ON(c3ccc(Cl)cc3)C(c3ccco3)C2C(=O)N1c1ccccc1 (centres undefined) | -0.114
107 | Cc1cccc(-n2c(-c3csc(C)c3C)n[nH]c2=S)c1 | 0.00757
108 | O=C1NC2(CCCCC2)Oc2ccccc21 | 1.88
109 | Cc1sc(NC(=O)c2ccccc2)c(C(=O)NC(C)C)c1C | 0.145
